The values below come from article PMC6919601, “Identification of Plasmodium dipeptidyl aminopeptidase allosteric inhibitors by high throughput screening” (PLoS ONE, 2019).

Hit rate of the full screen: of about 110,000 compounds, about 230 (0.21%) showed an effect of 50% or more. Some of the results follow.
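Also: 30 min substrate incubation versus DMSO and 10 µM JCP410 controls.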

In the assay the target is DPAP1 (Plasmodium falciparum, UniProt Q8IIJ9). Description: primary screen, percent inhibition; read by cleavage of a fluorogenic dipeptide substrate; higher = more effect of the substance. Also noted: species or system P. falciparum D10 trophozoite lysates; single well.
Sequence of DPAP1 (Q8IIJ9 whole entry, looked up): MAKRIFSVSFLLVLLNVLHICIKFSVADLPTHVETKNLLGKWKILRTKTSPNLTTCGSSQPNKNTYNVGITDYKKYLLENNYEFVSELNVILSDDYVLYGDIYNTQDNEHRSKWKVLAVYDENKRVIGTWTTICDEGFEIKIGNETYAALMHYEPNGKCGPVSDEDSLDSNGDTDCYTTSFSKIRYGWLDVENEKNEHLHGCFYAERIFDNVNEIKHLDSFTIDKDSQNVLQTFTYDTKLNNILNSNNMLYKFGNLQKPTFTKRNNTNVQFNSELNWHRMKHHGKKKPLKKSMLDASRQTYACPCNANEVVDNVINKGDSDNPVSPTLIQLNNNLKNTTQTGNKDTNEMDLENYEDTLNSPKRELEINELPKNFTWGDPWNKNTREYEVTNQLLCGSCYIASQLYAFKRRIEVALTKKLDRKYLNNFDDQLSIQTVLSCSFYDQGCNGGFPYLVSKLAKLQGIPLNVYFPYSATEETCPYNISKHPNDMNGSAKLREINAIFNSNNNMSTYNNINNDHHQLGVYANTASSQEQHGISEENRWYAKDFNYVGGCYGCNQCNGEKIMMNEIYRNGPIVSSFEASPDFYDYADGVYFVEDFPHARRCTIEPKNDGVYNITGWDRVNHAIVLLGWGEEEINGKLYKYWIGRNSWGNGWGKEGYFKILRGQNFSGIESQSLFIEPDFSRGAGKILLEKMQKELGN
On to `Cc1nc2c(C(=O)NCC3CCCO3)cnn2c(C)c1Cc1ccccc1Cl` (stereo not shown), for which the “% Inhibition @ 10 uM” value is -4.06%.

In the case of `CC(C)CCNC(=O)c1noc2c1COc1ccccc1-2`, the “% Inhibition @ 10 uM” value stood at 88.5%.

Turning to `CCN(CC)S(=O)(=O)c1ccc(-c2csc(Nc3ccc(F)cc3)n2)cc1`, the “% Inhibition @ 10 uM” value is listed as -2.42%.

In the case of `CC(C)N(Cc1nc(-c2ccccc2)no1)C(=O)CC(c1ccccc1)c1ccccc1`, the “% Inhibition @ 10 uM” value is reported as -4.62%.

Turning to `CCOC(=O)c1[nH]c2ccc(Cl)cc2c1-c1ccccc1`, the “% Inhibition @ 10 uM” value was found to be 3.48%.

`CN(CC(=O)NCCc1ccc(Cl)cc1)S(=O)(=O)c1ccc(-c2ccc(O)nn2)s1`: the “% Inhibition @ 10 uM” value is reported as -3.49%.

With `Cc1ccc(C2C(C#N)=C(N)Oc3c2sc2ccccc32)o1` (stereo not shown), the “% Inhibition @ 10 uM” value was -2.07%.

As for `Cc1cc(-c2cccs2)c2c(N)c(C(=O)c3ccc4c(c3)OCCO4)sc2n1`, the “% Inhibition @ 10 uM” value came to 3.62%.

For `CC(=O)N1CCN(C2=NC(=O)/C(=C/c3ccccc3O)S2)CC1`, the “% Inhibition @ 10 uM” value stood at 27.7%.

For the molecule `CC(C)OCCCn1c(=O)c2ccccc2n2c(CCC(=O)NCCC3=CCCCC3)nnc12`, the “% Inhibition @ 10 uM” value was -1.44%.

Take `O=C(Nc1ccc(Cl)cc1)c1cc(Cl)cc(Cl)c1O`: the “% Inhibition @ 10 uM” value came to 0.22%.

For the molecule `Cc1ccc(-n2nc3c(=O)n(CCCC(=O)N4CCN(C5CCCCC5)CC4)nc(C)c3c2C)cc1`, the “% Inhibition @ 10 uM” value is recorded as -0.486%.

In the case of `Cc1ccc2c(c1)cc1c(O)nncn12`, the “% Inhibition @ 10 uM” value came out at 3.3%.

As to `CC1CCc2c(sc3ncnc(N4CC5(C)CC4CC(C)(C)C5)c23)C1` (stereo not shown), the “% Inhibition @ 10 uM” value is listed as -4.51%.

Consider `CN(Cc1c(Cl)cccc1Cl)CC(O)c1ccccc1` (stereo not shown), for which the “% Inhibition @ 10 uM” value is given as -3.42%.

In the case of `COc1ccc(/C(O)=C/C=N/Cc2ccc(F)cc2)cc1OC`, the “% Inhibition @ 10 uM” value is -3.85%.

For the molecule `Cc1cccc(NC(=O)CN2C(=O)c3ccccc3S2(=O)=O)c1`, the “% Inhibition @ 10 uM” value was 11.9%.

For the molecule `CC(C)NS(=O)(=O)c1ccc(CCC(=O)NCc2ccco2)cc1`, the “% Inhibition @ 10 uM” value was -1.44%.

On to `Cc1cc(C)c(C)c(S(=O)(=O)Nc2cccnc2)c1C`, for which the “% Inhibition @ 10 uM” value is -5.49%.

Turning to `COc1ccc2cc(-n3nc(C)cc3C)c(-n3nc(C)cc3C)cc2c1`, the “% Inhibition @ 10 uM” value was found to be 0.947%.

As for `CCN(Cc1ccccc1)C(=O)c1sc2nc(C)c(Cl)c(C)c2c1N`, the “% Inhibition @ 10 uM” value was -4.35%.

Turning to `CCOC(=O)c1cc(-c2ccc(OC)cc2OC)no1`, the “% Inhibition @ 10 uM” value was determined as 10.9%.

As for `COCCNC(=O)CSc1[nH]c(-c2cccc(OC)c2)nc1-c1ccccc1`, the “% Inhibition @ 10 uM” value is on record as 0.163%.

In the case of `COc1ccc(-n2nnc3c(=O)n(CC(=O)N4CCC(C)CC4)cnc32)cc1`, the “% Inhibition @ 10 uM” value is -2.16%.

As for `CC(Cc1ccccc1F)NCCN1CCCCC1` (stereo not shown), the “% Inhibition @ 10 uM” value is listed as -2.02%.

As for `COc1ccc(/C=C/c2nn3c(-c4ccc(C)cc4)nnc3s2)cc1`, the “% Inhibition @ 10 uM” value was 6.01%.

`CCOc1cccc2c1OC1(CCC(C)CC1)N1N=C(c3ccc(C)o3)CC21` (stereo not shown): the “% Inhibition @ 10 uM” value worked out at 21.3%.

As to `O=C(NCCC1=CCCCC1)C1CCN(S(=O)(=O)c2ccc(-n3cnnn3)cc2)CC1`, the “% Inhibition @ 10 uM” value was determined as 5.43%.

In the case of `CC(C)(C)c1ccc(OCC(=O)NCc2nc(-c3ccccc3)no2)cc1`, the “% Inhibition @ 10 uM” value is -3.24%.

With `CCN(CC)CCN(CC)C1CCCC(C)C1` (stereo not shown), the “% Inhibition @ 10 uM” value is on record as -3.27%.

For the molecule `O=C(c1ccccc1)N1CC[C@H](O)[C@H]2CCCC[C@H]21`, the “% Inhibition @ 10 uM” value is given as -6.47%.

On to `COc1cc2c(cc1OC)C(C(=O)NCC1CCCO1)C(c1cccs1)N(C)C2=O` (stereo not shown), for which the “% Inhibition @ 10 uM” value is 2.59%.

Turning to `COc1ccc2cc3c(N)nn(C(=O)Cc4ccc(Cl)cc4)c3nc2c1`, the “% Inhibition @ 10 uM” value is 1.08%.

As to `Cc1nn2c(O)cc(Cc3ccccc3)nc2c1-c1ccc(Cl)cc1`, the “% Inhibition @ 10 uM” value was -5.28%.

`O=[N+]([O-])c1ccc(-n2nnc3ccccc32)c(C(F)(F)F)c1`: the “% Inhibition @ 10 uM” value is -0.415%.

For `CCN1CC2=C(OC(N)=C(C#N)C2c2ccccc2Cl)/C(=C/c2ccccc2Cl)C1` (stereo not shown), the “% Inhibition @ 10 uM” value is listed as 0.0719%.

Take `CCc1nc(Nc2nc3ccccc3s2)nc2c1CCCC2`: the “% Inhibition @ 10 uM” value is listed as -1.33%.

`O=C(Cn1cc(S(=O)(=O)N2CCCC2)c(S(=O)(=O)N2CCCC2)c1)Nc1ccccn1`: the “% Inhibition @ 10 uM” value came out at 3.03%.

Consider `CCC(NS(=O)(=O)c1ccc(C)cc1)C(=O)N1CCN(c2ccccn2)CC1` (stereo not shown), for which the “% Inhibition @ 10 uM” value stood at 0.64%.

For `COc1cc(NC(=O)CCn2cnnn2)nc(OC)n1`, the “% Inhibition @ 10 uM” value is given as -0.92%.

Turning to `O=C(CSc1nc2ccccc2nc1N1CCOCC1)NCCc1ccc(Cl)cc1`, the “% Inhibition @ 10 uM” value is reported as 0.032%.

Take `Cc1ccnc(NC(=O)C(c2ccccc2)c2ccccc2)c1`: the “% Inhibition @ 10 uM” value stood at 3.83%.

For `CC1CC(C)CN(C(=O)Cn2ncc3c4ccccc4n(Cc4cccc(Cl)c4)c3c2=O)C1` (stereo not shown), the “% Inhibition @ 10 uM” value is reported as 3.4%.

For `CNC(=O)c1nnc(Cc2ccc(F)cc2)o1`, the “% Inhibition @ 10 uM” value is recorded as -2.8%.

`CCCCNC(=O)c1[nH]c(C)c(C(C)=O)c1C`: the “% Inhibition @ 10 uM” value was -0.719%.

For the molecule `O=C(NCCC1=CCCCC1)c1ccc(CNC(=O)c2cccc(Br)c2)cc1`, the “% Inhibition @ 10 uM” value was 1.27%.

As for `COc1cc(OC)cc(C(=O)Nc2ccc3nn(-c4ccc(C)cc4)nc3c2)c1`, the “% Inhibition @ 10 uM” value worked out at 0.214%.

As for `COc1ccccc1N1CCN(C(=O)c2ccco2)CC1`, the “% Inhibition @ 10 uM” value is reported as 6.08%.

Regarding `COc1cc2c(cc1OC)C(c1ccc(O)cc1)NCC2` (stereo not shown), the “% Inhibition @ 10 uM” value is -1.8%.
